From PMC4336329 (PLoS ONE, 2015)
Out of some 310,000 compounds screened, about 14,000 (4.5%) showed an effect of 50% or more. Effects have a minus sign here. The list shows a part of the results.

molecular target: human ether-à-go-go-related gene (hERG) potassium channel (human, UniProt Q12809); experiment: primary screen, population patch clamp on CHO cells stably expressing hERG
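Further: peak tail current of the secondary pulse compared with the same well before compound.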

Sequence of human ether-à-go-go-related gene (hERG) potassium channel (Q12809 whole entry, looked up): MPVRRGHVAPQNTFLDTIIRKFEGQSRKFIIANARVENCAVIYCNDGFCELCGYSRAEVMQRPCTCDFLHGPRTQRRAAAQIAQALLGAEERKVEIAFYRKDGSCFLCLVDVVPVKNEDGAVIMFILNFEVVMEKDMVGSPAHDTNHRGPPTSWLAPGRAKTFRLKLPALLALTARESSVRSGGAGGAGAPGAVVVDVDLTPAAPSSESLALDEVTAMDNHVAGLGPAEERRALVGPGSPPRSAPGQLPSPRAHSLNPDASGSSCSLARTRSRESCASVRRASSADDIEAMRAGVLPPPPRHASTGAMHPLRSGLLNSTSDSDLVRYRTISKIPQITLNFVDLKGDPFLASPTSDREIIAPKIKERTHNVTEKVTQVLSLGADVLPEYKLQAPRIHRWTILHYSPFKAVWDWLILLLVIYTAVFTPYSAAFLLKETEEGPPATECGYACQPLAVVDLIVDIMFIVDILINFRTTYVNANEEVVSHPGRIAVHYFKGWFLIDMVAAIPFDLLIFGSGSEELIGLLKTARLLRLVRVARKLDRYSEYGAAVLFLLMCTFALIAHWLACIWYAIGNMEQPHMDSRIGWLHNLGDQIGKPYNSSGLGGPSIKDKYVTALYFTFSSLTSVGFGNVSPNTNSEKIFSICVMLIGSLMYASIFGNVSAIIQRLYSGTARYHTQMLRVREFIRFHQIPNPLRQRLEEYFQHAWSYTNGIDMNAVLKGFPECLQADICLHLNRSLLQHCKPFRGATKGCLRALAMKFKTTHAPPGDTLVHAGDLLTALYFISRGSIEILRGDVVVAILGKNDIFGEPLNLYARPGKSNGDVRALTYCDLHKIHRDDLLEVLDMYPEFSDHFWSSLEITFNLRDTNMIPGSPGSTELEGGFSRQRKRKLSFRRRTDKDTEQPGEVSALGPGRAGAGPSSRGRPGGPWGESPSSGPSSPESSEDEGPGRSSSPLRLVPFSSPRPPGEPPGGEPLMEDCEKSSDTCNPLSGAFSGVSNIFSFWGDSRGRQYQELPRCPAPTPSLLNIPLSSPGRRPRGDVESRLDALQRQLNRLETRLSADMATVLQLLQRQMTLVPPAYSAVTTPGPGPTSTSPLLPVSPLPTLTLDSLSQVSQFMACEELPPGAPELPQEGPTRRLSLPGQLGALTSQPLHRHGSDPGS

| SMILES | hERG current change (%, negative = inhibition) at 10uM [%] |
| --- | --- |
| CC1CCCN(C(=O)CN2C(=O)c3ccccc3S2(=O)=O)C1 (stereo not shown) | 18.5 |
| O=C(c1c[nH]c2ccc(S(=O)(=O)N3CCOCC3)cc2c1=O)N1CCC2(CC1)OCCO2 | 23.7 |
| NS(=O)(=O)c1ccc(CCNC(=O)c2ccc[nH]c2=S)cc1 | -0.0831 |
| COc1cc(/C=N/NC(=O)c2ccccc2O)ccc1OC(=O)CC1SC(=O)NC1=O (stereo not shown) | 11.8 |
| Cn1c(=O)oc2cc(S(=O)(=O)Nc3ccccc3F)ccc21 | 17.3 |
| C=CCOc1ccccc1CNc1cccc(F)c1 | 14.2 |
| COc1ccc(OC)c(NC(=O)Cc2cccs2)c1 | 20.7 |
| Cc1ccc(S(=O)(=O)Nc2nc(C)c(C(=O)NNS(=O)(=O)c3cc(C)ccc3C)s2)cc1 | 15.2 |
| COc1cc(OC)cc(C(=O)NC(C)c2cnn(-c3ccccc3C)c2C)c1 (stereo not shown) | -1.48 |
| O=C(O)c1cccc(NC2=C(N3CCOCC3)C(=O)c3ccccc3C2=O)c1 | 12.4 |
| Cl.O=C(CCS(=O)(=O)c1ccccc1)N(CCCN1CCOCC1)c1nc2ccccc2s1 | -14.1 |
| CCOC(=O)c1ccccc1NC(=O)CSc1nc2ccccc2o1 | 1.06 |
| CC(=O)Nc1ccc(N2CCN(c3ccc(F)cc3)CC2)cc1 | 18.4 |
| CS(=O)(=O)c1ccc(Cl)c(NC(=O)CSc2nc3ccccc3c(=O)n2CCCN2CCOCC2)c1 | -47.7 |
| CCOc1ccc(OCC(=O)Nc2ccc(OC)cc2)cc1 | 22.7 |
| CNC(=S)N(CCc1c(C)[nH]c2ccccc12)Cc1ccco1 | 0.71 |
| COc1ccccc1CNC(=O)CCn1c(=O)oc2ccccc21 | 0.0851 |
| COc1ccc2c(c1)[nH]c1c(=O)n(/N=C/c3ccc(OC)c(CN4CCCC4)c3)cnc12 | -71.1 |
| Oc1ccc(/C=N/NC2=NCCCCC2)c(O)c1 | -19.8 |
| Cc1ccc(C)n1-c1cccc(C(=O)Nc2ccccc2)c1 | 2.57 |
| CC(=O)Nc1ccc(S(=O)(=O)N2CC(=O)NC(=O)C2)cc1 | 29.9 |
| Cc1cc(C(=O)OCC(=O)Nc2cccnc2Cl)c2ccccc2n1 | 6.15 |

| SMILES | hERG current change (%, negative = inhibition) at 10uM [%] |
| --- | --- |
| CCc1nnc(NC(=O)CSc2nnc(-c3c[nH]c4ccccc34)n2C)s1 | 5.82 |
| C/C=C/C1=CC(=O)C[C@H](c2ccc(Cl)cc2)C1 | -63.9 |
| C=CCOC(=O)C1=C(C)Nc2nnnn2C1c1cccc(OC)c1OC (stereo not shown) | -4.72 |
| Cc1ccc(N(CC(O)Cn2c3ccccc3c3ccccc32)S(C)(=O)=O)cc1 (stereo not shown) | 9.82 |
| CCOC(=O)N1CCN(c2nc3ccccc3n3cnnc23)CC1 | 1.2 |
| CC(C)CNC(=O)C(=O)Nc1cc2c3c(c1)C(C)C(=O)N3CCC2 (stereo not shown) | 4.51 |
| Cc1cc(C)c2nncn2n1 | 9.04 |
| Cc1cccc(CS(=O)(=O)Cc2ccc(C(=O)NCCc3ccccc3)o2)c1 | -38.8 |
| Cc1ccc(S(=O)(=O)N2CCCCC2)cc1C(=O)N(CCc1ccccc1)Cc1ccccc1 | 10.3 |
| Cc1ccc(S(=O)(=O)N2C(=O)CCC2C(=O)N2CCCCC2)cc1 (stereo not shown) | 9.95 |
| Cc1ccc(CN2C(=O)C(Cc3ccccc3)Nc3ncnc(N4CCCCC4)c32)cc1.O=C(O)C(F)(F)F (stereo not shown) | -12 |
| CN1CCC(N(C)C(=O)/C=C/c2cn(-c3ccccc3)nc2-c2cccs2)CC1.Cl | -22.3 |
| CCC(C)(C)NC(=O)CN(C(=O)CCC(=O)Nc1cc(C)ccn1)c1ccc2c(c1)OCCO2 | 22.7 |
| COc1cc2nc(SCC(=O)NCc3ccco3)n(Cc3ccc(Cl)cc3)c(=O)c2cc1OC | -3.17 |
| CC(C)[N+]1(C)[C@@H]2CC[C@@H]1CC(OC(=O)C(CO)c1ccccc1)C2.[Br-] (stereo partly shown) | 9.01 |
| COC(=O)[C@@H]1C[C@H]2CC[C@H](O)C[C@H]2N1Cc1ccc(-c2ccccc2)cc1 | 16.5 |
| Cc1ccc(NC(=S)Nc2cccc(-c3n[nH]c(=S)o3)c2)cc1 | 16.7 |
| Cc1cccc2cc(C(c3nnnn3Cc3ccc4c(c3)OCO4)N3CCCC3)c(=O)[nH]c12 (stereo not shown) | -15.7 |
| CC(=O)Nc1ccc(OCc2nnc(-c3ccccc3)o2)cc1 | -0.46 |
| COc1ccccc1C(C[N+](=O)[O-])c1c[nH]c2ccccc12 (stereo not shown) | -12.4 |
| COc1cc(NC(=O)CCS(=O)(=O)c2ccc3nc(C)sc3c2)cc(OC)c1OC | 6.74 |
